Data from article PMC4336329 (PLoS ONE, 2015).
The campaign covered roughly 310,000 compounds. About 14,000 (4.5%) showed an effect of 50% or more. Effects have a minus sign here. The list shows a part of the results.

Molecular target: human ether-à-go-go-related gene (hERG) potassium channel (human, UniProt Q12809)
Assay: primary screen, population patch clamp on CHO cells stably expressing hERG
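Also: peak tail current of the secondary pulse compared with the same well before compound.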

Chain of human ether-à-go-go-related gene (hERG) potassium channel (Q12809 whole entry, looked up): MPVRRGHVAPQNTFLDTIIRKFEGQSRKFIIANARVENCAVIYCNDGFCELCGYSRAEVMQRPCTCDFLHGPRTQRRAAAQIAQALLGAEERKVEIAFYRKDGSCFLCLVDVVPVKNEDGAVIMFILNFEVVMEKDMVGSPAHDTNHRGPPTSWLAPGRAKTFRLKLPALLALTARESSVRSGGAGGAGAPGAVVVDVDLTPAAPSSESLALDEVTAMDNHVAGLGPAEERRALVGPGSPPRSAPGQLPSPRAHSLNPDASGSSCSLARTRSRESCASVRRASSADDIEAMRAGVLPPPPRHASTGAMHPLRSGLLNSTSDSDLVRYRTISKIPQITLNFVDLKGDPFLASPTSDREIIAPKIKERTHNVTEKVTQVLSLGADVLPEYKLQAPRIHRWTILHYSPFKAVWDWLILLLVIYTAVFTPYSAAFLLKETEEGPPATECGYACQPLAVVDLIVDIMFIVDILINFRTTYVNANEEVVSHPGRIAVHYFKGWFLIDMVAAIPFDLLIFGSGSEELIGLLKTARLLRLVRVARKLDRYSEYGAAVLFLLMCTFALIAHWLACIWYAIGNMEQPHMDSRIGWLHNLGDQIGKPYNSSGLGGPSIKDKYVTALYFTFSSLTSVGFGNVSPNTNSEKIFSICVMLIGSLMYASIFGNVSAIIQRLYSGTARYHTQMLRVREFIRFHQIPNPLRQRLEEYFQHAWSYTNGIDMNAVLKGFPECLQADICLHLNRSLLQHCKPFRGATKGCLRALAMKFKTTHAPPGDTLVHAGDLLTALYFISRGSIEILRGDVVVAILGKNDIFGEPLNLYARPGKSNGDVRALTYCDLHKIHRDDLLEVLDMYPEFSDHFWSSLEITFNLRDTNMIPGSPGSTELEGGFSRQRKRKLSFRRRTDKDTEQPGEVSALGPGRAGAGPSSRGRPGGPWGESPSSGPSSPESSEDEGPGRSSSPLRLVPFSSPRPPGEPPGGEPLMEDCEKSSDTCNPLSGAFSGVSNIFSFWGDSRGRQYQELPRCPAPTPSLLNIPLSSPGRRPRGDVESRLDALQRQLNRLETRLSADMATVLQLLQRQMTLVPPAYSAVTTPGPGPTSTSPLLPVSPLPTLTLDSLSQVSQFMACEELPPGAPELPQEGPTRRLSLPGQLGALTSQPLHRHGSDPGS

In order of falling “hERG current change (%, negative = inhibition) at 10uM” value:
1. CC(=O)Nc1ccc2nc(NC(=O)C(Cl)(Cl)Cl)sc2c1  31.1%
2. CC(=O)Nc1ccc(S(=O)(=O)NC2(C(F)(F)F)C(=O)Nc3c2c(=O)[nH]c(=O)n3Cc2cccnc2)cc1 (centres unmarked)  23.3%
3. COc1ccc(CNC(=O)C(C)OC(=O)C23CC4CC(CC(O)(C4)C2)C3)cc1 (centres unmarked)  21.4%
4. Cc1cc(C)n(CCOC(=O)c2sc3ccccc3c2Cl)n1  20.5%
5. COC(=O)c1c(NC(=O)CN(c2ccccc2)S(C)(=O)=O)sc2c1CCCC2  17.8%
6. O=C(O)c1ccccc1C(=O)Nc1ccc(Nc2ccc([N+](=O)[O-])cc2[N+](=O)[O-])cc1  17.5%
7. Cc1onc(-c2ccccc2)c1C(=O)NNC(=S)NC(=O)c1ccc(Br)cc1  16.1%
8. Cc1ccc(C)c(OCC(=O)Nc2cc(NC(=O)COc3cc(C)ccc3C)cc(C(=O)O)c2)c1  15.7%
9. CCOc1ccc(-n2c(-c3ccco3)nc3c(cnn3-c3ccc(C)cc3)c2=O)cc1  14.3%
10. COCCNC(=O)N1[C@H]2CC[C@@H]1C(C(=O)OC)=C(c1cccc(C#N)c1)C2  13.2%
11. COc1cc(CNS(=O)(=O)CCl)cc(OC)c1OC  12.7%
12. O=C(Nc1ccc2c(c1)OCCO2)c1cccs1  12.4%
13. O=C(NCc1ccccc1)c1cnc(-c2ccccn2)nc1C(F)(F)F  10.9%
14. COc1ccc(CCN2C(=O)CC(NNC(=O)c3cccc(O)c3)C2=O)cc1 (centres unmarked)  10.6%
15. CCOC(=O)c1ccc(NC(=O)N2C[C@@H]3C[C@@H](C2)c2cccc(=O)n2C3)cc1  10.5%
16. CCN(CC)c1ccc(/C=N/Nc2nn[nH]n2)cc1  9.9%
17. CCOC(=O)c1c(C)[nH]c(C(=O)OCc2c(C)noc2C)c1C  8.68%
18. COc1ccc2c(c1)CC/C(=C\c1ccc(C)o1)C2=O  8.29%
19. O=C(N/N=C/c1cccnc1)c1ccc(NC(=O)c2ccc(F)cc2)cc1  8.2%
20. CCCc1sc(N/N=C/c2ccccn2)nc1-c1ccc(Br)cc1  5.39%
21. O=C(CSc1ncnc2c1oc1ccccc12)NCC1CCCO1 (centres unmarked)  5.26%
22. Cn1ccnc1SCC(=O)Nc1cccc([N+](=O)[O-])c1  4.15%
23. O=c1c(Cl)c(N2CCN(c3ccc(F)cc3)CC2)cnn1-c1nc2ccccc2s1  3.66%
24. Cc1cc(C(=O)CSc2nncn2C)c(C)n1-c1ccccc1  3.47%
25. CCN(CC(=O)Nc1ccc(OC)cc1)CC(=O)Nc1sc2c(c1C(=O)OC)CCCC2  3.39%
26. O=C(CN1C(=O)NC2(CCCCC2)C1=O)Nc1ccc(S(=O)(=O)N2CCOCC2)cc1  1.2%
27. O=C(OCC(=O)c1c[nH]c2ccccc12)c1cccc([N+](=O)[O-])c1  0.167%
28. CCOc1ccc(C(=O)NC(=S)Nc2cccc(S(=O)(=O)NC3=NCCC3)c2)cc1  -0.298%
29. CCCc1cc(=O)[nH]c(SCC(=O)NCCCC(=O)OCC)n1  -0.482%
30. CC1CCN(C(=O)CSc2nnc3c(n2)[nH]c2ccccc23)CC1  -0.738%
31. Cc1nn(-c2ccccc2)c2c1C1(C(=O)N(C(C)C)c3ccccc31)C(C#N)=C(N)O2 (centres unmarked)  -1.88%
32. O=C1CN(S(=O)(=O)c2ccc(Cl)cc2)CC(=O)N1CCc1ccccc1  -2.24%
33. CC(C)C(NC(=O)c1ccccc1)C(=O)OCC(=O)N1CCCC1 (centres unmarked)  -2.42%
34. CCn1c(-c2ccccc2)ccc(C#N)c1=O  -3.7%
35. S=C(c1ccc2c(c1)OCO2)N1CCCCCC1  -3.92%
36. CCOC(=O)C1C(=O)NC(c2ccccc2)=NC1c1ccc(OC)cc1 (centres unmarked)  -12.2%
37. CCOC(=O)Cc1c(C)nc2c(C#N)c(C)nn2c1C  -12.6%
38. C=CCn1c(SCC(=O)NC(=O)c2cccc([N+](=O)[O-])c2)nnc1-c1ccccc1F  -15.5%
39. C=CCN(c1ccccc1)S(=O)(=O)c1cccc(C(=O)N2CCCC2)c1  -16.7%
40. COc1cccc(C(=O)N2CCCC(CCC(=O)NCc3ccc(F)c(F)c3)C2)c1 (centres unmarked)  -17.5%
41. Cc1nn(CCCC(=O)NCCc2ccccc2)c(C)c1[N+](=O)[O-]  -18.7%
42. Cc1ccc(C(=O)NC(C)c2ccc(C)c(C)c2)s1 (centres unmarked)  -20.3%
43. CCCC(=NCCc1c(C)[nH]c2ccccc12)C1=C(O)CC(c2ccccc2)CC1=O (centres unmarked)  -22.2%
44. CCN(C(=O)COC(=O)c1c(-c2ccccc2)noc1C)C1CCS(=O)(=O)C1 (centres unmarked)  -22.2%
45. COc1ccccc1C(=O)Nc1ncc2c(n1)CC(c1ccco1)CC2=O (centres unmarked)  -23.5%
46. O=C(Nc1ccccc1C(=O)N1CCN(Cc2ccccc2)CC1)c1ccc(F)cc1  -23.5%
47. O=C(NC1CCN(C(=O)Nc2ccc(F)cc2)CC1)c1ccc(F)cc1  -24.9%
48. O=C(CCNC(=O)c1ccc([N+](=O)[O-])cc1)NCCc1ccc(Cl)cc1  -40.4%
49. CN(Cc1ccc(OC(F)F)cc1)C(=O)C1CCN(S(=O)(=O)c2ccc3c(c2)OCCO3)CC1  -45.9%
50. CCOc1cccc2sc(N(CCN(C)C)C(=O)c3ccc4c(c3)OCCO4)nc12.Cl  -53.5%
51. CCOc1cc(N2CCOCC2)c(OCC)cc1NC(=O)CN1CCN(Cc2ccc3c(c2)OCO3)CC1.Cl  -55.8%
52. CCN1CCN(c2ccc(S(=O)(=O)N3CCCCC3)cc2NC(=O)c2ccc([N+](=O)[O-])o2)CC1  -75.9%
53. CN(C)c1ccc(C(=O)N2CCCC(N3CCN(Cc4ccc5c(c4)OCO5)CC3)C2)cc1 (centres unmarked)  -82.3%
